# Assay results reported in the BET-seq Pho4 binding data (Le et al. 2018).
# This is one part of the list. Values were computed here from the reads of four pooled replicates and scatter widely.
# Molecular target: T1, Pho4 (S. cerevisiae) (UniProt P07270)
# T1 sequence: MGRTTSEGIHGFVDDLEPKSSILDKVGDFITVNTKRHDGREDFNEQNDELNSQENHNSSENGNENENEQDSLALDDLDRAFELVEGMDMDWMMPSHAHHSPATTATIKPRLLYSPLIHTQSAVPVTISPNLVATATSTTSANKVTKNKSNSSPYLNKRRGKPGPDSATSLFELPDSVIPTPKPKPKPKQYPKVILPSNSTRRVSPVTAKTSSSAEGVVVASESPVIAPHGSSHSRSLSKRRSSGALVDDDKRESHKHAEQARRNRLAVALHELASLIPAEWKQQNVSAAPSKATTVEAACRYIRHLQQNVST
# Test: relative binding free energy (BET-seq); higher = weaker binding
# Conditions: reference: library average
row,Sequence,relative binding free energy
1,ATGTACACGTGGGGTT,-0.1 kcal/mol
2,GTAAACACGTGAGGGA,0.3 kcal/mol
3,TAATGCACGTGAGGGG,0.13 kcal/mol
4,GCTGGCACGTGAAGAG,0.14 kcal/mol
5,ATGCACACGTGTGGGT,0.15 kcal/mol
6,GTGTGCACGTGGATCT,-0.05 kcal/mol
7,GAAGGCACGTGAATGG,0.08 kcal/mol
8,TTAAGCACGTGGGATT,-0.17 kcal/mol
9,CTGGTCACGTGAAGGT,0.3 kcal/mol
10,TGGTTCACGTGGTTCT,0.17 kcal/mol
11,GGTTGCACGTGCGAAG,0.03 kcal/mol
12,AGTTACACGTGAATAG,0.6 kcal/mol
13,ATGAACACGTGGCTGG,-0.06 kcal/mol
14,TTTTGCACGTGTCGGA,0.2 kcal/mol
15,GTGGTCACGTGCGATG,0.05 kcal/mol
16,AATTTCACGTGATGAT,0.29 kcal/mol
17,GGGCGCACGTGGGTTG,-0.33 kcal/mol
18,TTAGTCACGTGTAGAC,0.17 kcal/mol
19,CGGCGCACGTGGGCGG,-0.28 kcal/mol
20,TACAACACGTGGTGGT,-0.03 kcal/mol
21,GTTGGCACGTGTACAT,-0.02 kcal/mol

row,Sequence,relative binding free energy
1,ACGGTCACGTGATGGA,0.14 kcal/mol
2,AAGTGCACGTGCGTTT,-0.12 kcal/mol
3,TCGGGCACGTGTTGCT,-0.05 kcal/mol
4,CGGGCCACGTGAGTGG,0.03 kcal/mol
5,GGATGCACGTGTGATG,-0.11 kcal/mol
6,ATTTACACGTGTAGAG,0.05 kcal/mol
7,AGATGCACGTGAGCAG,0.24 kcal/mol
8,TCGGGCACGTGGGCAT,-0.3 kcal/mol
9,CCAGTCACGTGGTTGG,0.06 kcal/mol
10,GTGTTCACGTGTAGCA,0.39 kcal/mol
11,AGTTCCACGTGTAGGG,0.05 kcal/mol
12,GTGGACACGTGTGTGA,0.1 kcal/mol
13,TTTGACACGTGCTGGA,0.11 kcal/mol
14,TGGCCCACGTGGGAGT,-0.21 kcal/mol
15,CGGGACACGTGGGAAA,0.12 kcal/mol
16,CGTTACACGTGTTACG,0.24 kcal/mol
17,TATGCCACGTGAGATT,0.23 kcal/mol
18,GGGGACACGTGGTGTG,-0.01 kcal/mol
19,TTAAGCACGTGAAGAT,0.24 kcal/mol
20,GTGTTCACGTGTTAGT,0.38 kcal/mol
21,GCGATCACGTGTTGTT,0.22 kcal/mol

row,Sequence,relative binding free energy
1,TTTGGCACGTGGCTAT,-0.22 kcal/mol
2,ATAGACACGTGTAGGG,-0.08 kcal/mol
3,ACGTGCACGTGAAGTT,0.1 kcal/mol
4,GTATTCACGTGATTGT,0.31 kcal/mol
5,ATGAGCACGTGCGAGT,-0.13 kcal/mol
6,CGAATCACGTGGGTGA,0.02 kcal/mol
7,TGAATCACGTGTGCGA,0.11 kcal/mol
8,TGTGCCACGTGTGTGA,-0.19 kcal/mol
9,CTTGTCACGTGAAGGC,0.31 kcal/mol
10,TGAGGCACGTGGCGAC,-0.06 kcal/mol
11,GGATTCACGTGGCTTA,0.27 kcal/mol
12,CGGGTCACGTGATCGG,0.06 kcal/mol
13,AGATTCACGTGTGGGG,0.3 kcal/mol
14,TAGGTCACGTGTGTGC,0.06 kcal/mol
15,GAGTGCACGTGTAGTG,0.11 kcal/mol
16,TTGCTCACGTGAATTT,0.49 kcal/mol
17,TGCTGCACGTGTAGAT,0.06 kcal/mol
18,TAATGCACGTGTCGGT,-0.1 kcal/mol
19,GGCGCCACGTGGTTTA,0.04 kcal/mol
20,AATTTCACGTGAATTT,0.41 kcal/mol
21,AGTTACACGTGGGTCA,0.05 kcal/mol
